# Results published in PubChem BioAssay AID493005 (National Center for Advancing Translational Sciences (NCATS), 2010).
# Fewer than 10 of roughly 340,000 compounds were called active. Inconclusive results, whose numbers are uncertain, are shown with a selection of clear calls. Calls come from the whole dose curve; as a rule, active = well fitted inhibition curve with a large enough effect in the main read-out, with a control signal flat (not every such curve was filed as active); inconclusive = small, poorly fitted or top-dose-only effect, or effect the other way, or a change in a side signal; inactive = no such curve, though single readings can be large or run the other way. Potencies beside an inconclusive call are fits to weak or partial responses and may not hold up. “Side channel” marks fits to a control or component signal instead of the main read-out.
# Biological target: Tumor susceptibility gene 101 protein (Homo sapiens) (UniProt Q99816)
# Assay: qHTS Assay for Iinhibitors of HIV-1 Budding by Blocking the Interaction of PTAP/TSG101; for activity change, negative = inhibition: % of control where 0% means no effect
# Settings: Fluorescence polarization, FITC-PTAP peptide / Tsg101 binding; activity change, negative = inhibition: at 115 µM (top of the series)
# Excerpt: NIH Molecular Libraries Probe Production Network [MLPCN] NIH Chemical Genomics Center [NCGC] MLPCN Grant: 1 R03 MH087464-01A1 PI Name: Dr. Eric Freed, NCI NCGC Assay Overview: Stages of the HIV-1 replication cycle, specifically virus assembly and release, provide underexploited targets for the development of novel antiviral inhibitors. The late stages of HIV-1 replication are mediated by the Gag precursor protein, Pr55Gag. Expression of Pr55Gag is both necessary and sufficient for the production of virus-like particles from Gag-expressing cells. The Gag protein hijacks key host proteins involved in endocytic machinery of the host cell to promote endosomal processing and viral budding. The budding process requires a direct interaction between a […] (PTAP) motif in the p6 domain of Gag and the cellular endosomal sorting protein known as Tsg101. In this way, the Gag PTAP motif promotes the host cells to recruit viral particles to the plasma membrane where the new viral particles are released, effectively turning the host cells into viral factories. A fluorescence anisotropy assay has been developed to quantitatively measure the PTAP-Tsg101 interaction which can be used to screen for inhibitors of this interaction.
# NCGC Assay Protocol Summary: Two uL of the Tsg101 binding domain in buffer (10 mM HEPES pH 7.5; 0.15 M NaCl, 0.01% Tween 20; 3 mM EDTA;0.1 mM TCEP) was dispensed into Greiner black MB 1536-well plates (final concentration 10 uM). Then, 23 nL of compounds or DMSO were delivered to each well using a pin tool. Finally, 2 uL of a FITC-labeled peptide containing the PTAP motif (1) in the same buffer was dispensed (50 nM final concentration) and the binding was allowed to proceed for 20 min. at r.t. Fluorescent polarization was determined using FITC excitation and polarized emission filters on a Perkin Elmer Viewlux. Keywords: Tsg101, PTAP, Gag, HIV, fluorescent polarization, MLSMR, MLPCN, NIH Roadmap, qHTS, NCGC
# Potency is the fitted concentration of half-maximal effect; tags give direction and shape of the fitted curve or compound fluorescence and quenching.
# Sequence of UniProt Q99816 (Q99816 whole entry, looked up): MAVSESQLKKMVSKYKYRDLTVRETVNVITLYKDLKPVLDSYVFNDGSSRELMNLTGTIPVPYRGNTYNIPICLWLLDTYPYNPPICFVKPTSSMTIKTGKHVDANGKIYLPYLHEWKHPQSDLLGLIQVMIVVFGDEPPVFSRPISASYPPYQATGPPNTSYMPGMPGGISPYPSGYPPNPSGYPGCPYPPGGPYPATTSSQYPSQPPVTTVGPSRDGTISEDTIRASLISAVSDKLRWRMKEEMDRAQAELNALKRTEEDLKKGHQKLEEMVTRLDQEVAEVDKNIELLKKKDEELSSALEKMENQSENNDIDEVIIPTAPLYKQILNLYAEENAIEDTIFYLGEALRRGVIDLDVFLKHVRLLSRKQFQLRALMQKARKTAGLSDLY
SMILES,Potency,"activity change, negative = inhibition"
Cc1nnc(SC(C)C(=O)NC2CCCCC2)[nH]c1=O (centres undefined),"inconclusive: 89.1 µM [fluorescent, side channel, single point]",–
O=C1OC(c2cccs2)=N/C1=C\c1ccc(-c2ccccc2Cl)o1,"inconclusive: 12.6 µM [fluorescent, side channel, full curve]",–
CN(C)Cc1c(O)ccc2c1O/C(=C\C=C\c1ccccc1)C2=O,"inconclusive: 56.2 µM [fluorescent, side channel, partial curve, poor fit]",–
OCC[C@H]1C[C@@H](O)[C@H](O)[C@]2(OCc3ccccc32)O1,inactive,–
O=C(O)c1csc(-c2cccc(Cl)c2)n1,inactive,–
O=S(=O)(Nc1cccc(-c2ccc(N3CCCCCC3)nn2)c1)c1cccc(F)c1,"inconclusive: 50.1 µM [fluorescent, side channel, partial curve, poor fit]",–
CC(=O)Nc1sc(/C(C#N)=C/c2ccc(Cl)c(Cl)c2)nc1-c1ccc(C)cc1,"inconclusive: 11.2 µM [fluorescent, side channel, full curve, poor fit]",–
Cc1ccc(-c2n[nH]c(=O)c3ccccc23)cc1S(=O)(=O)Nc1ccccc1,inactive,–
COCC1CCN(Cc2c(C(=O)N3CCc4ccccc4C3)nc3ccc(Cl)cn23)C1 (centres undefined),"inconclusive: 89.1 µM [fluorescent, single point]",–
CC(C)NC(=O)/C(C#N)=C/c1ccc(N(C)C)o1,"inconclusive: 50.1 µM [fluorescent, side channel, partial curve, poor fit]",–
CCCOc1ccc(-c2nn(-c3ccccc3)cc2/C=C2\SC(N)=NC2=O)cc1,inactive,–
CCN1/C(=C2/SC(=S)N(NC(C)=O)C2=O)Sc2ccccc21,"inconclusive: 56.2 µM [fluorescent, side channel, partial curve, poor fit]",–
O=C(Nc1ccc2nc3n(c(=O)c2c1)CCCCC3)C(=O)N1CCN(c2ccccc2F)CC1,inactive,–
Cc1cccc(CN2C(=O)N/C(=C/c3ccc(C)s3)C2=O)c1,"inconclusive: 79.4 µM [fluorescent, side channel, partial curve, poor fit]",–
COc1cc(/C=C(\C#N)c2nc3ccccc3o2)ccc1O,"inconclusive: 39.8 µM [fluorescent, side channel, partial curve]",–
COc1cc(NC(=O)CCC(=O)OCCCC(F)(F)C(F)(F)F)nc(OC)n1,inactive,–
COc1ccc(CC(=O)Nc2nn(C)c3nc4c(C)cccc4cc23)cc1,inactive,–
CCCCC(=O)OC1CCC2C3CCc4cc(O)ccc4C3CCC12C (centres undefined),"inconclusive: 44.7 µM [quencher, side channel, partial curve, poor fit]",–
CC(=O)N(C(C)=O)N1C(=O)c2cccc3c(N4CCOCC4)ccc(c23)C1=O,"inconclusive: 89.1 µM [fluorescent, single point]",–
CCOC(=O)/C(=C/c1ccc(N2CCC(c3ccccc3)=N2)cc1)C(C)=O,"inconclusive: 50.1 µM [fluorescent, side channel, partial curve, poor fit]",–

SMILES,Potency,"activity change, negative = inhibition"
Cc1cc(NC(=O)c2ccccc2NS(=O)(=O)c2c(C)c(C)cc(C)c2C)no1,inactive,–
COC(=O)c1c(=O)n(O)c2ccc(OC)cc2[n+]1[O-],"inconclusive: 50.1 µM [fluorescent, side channel, partial curve, poor fit]",–
CCN(c1cccc(C)c1)S(=O)(=O)c1ccc2c(c1)CCCN2C(C)=O,–,inconclusive: 53.5% [activator]
Cc1cccn2c(=O)c(/C=C3\SC(=S)N(CC(C)C)C3=O)c(NCCCOC(C)C)nc12,"inconclusive: 10 µM [fluorescent, side channel, full curve, poor fit]",–
Cc1cc(NC(=O)/C(C#N)=C/c2ccc(-c3ccc(SC(F)F)cc3)o2)n(-c2ccccc2)n1,"inconclusive: 50.1 µM [fluorescent, partial curve, poor fit]",–
CCOC(=O)/C(C#N)=C(C)/C=C1\Sc2ccccc2N1CC,"inconclusive: 56.2 µM [fluorescent, partial curve, poor fit]",–
CC(C(=O)NCC(=O)Nc1ccc(F)c(F)c1F)N1CCN(c2ccc(O)cc2)CC1 (centres undefined),inactive,–
OC(CN1C2=NCCN2c2ccccc21)c1ccc(Br)cc1 (centres undefined),inactive,–
Cc1cccc(-n2c(O)c(C=Nc3ccc4c(c3)OCO4)c3ccccc3c2=O)n1,"inconclusive: 89.1 µM [fluorescent, side channel, single point]",–
Cc1ccc(C2C(C#N)=C(N)SC(N)=C2C#N)c(C)c1,"inconclusive: 56.2 µM [fluorescent, side channel, partial curve, poor fit]",–
Cc1nnc(NC(=O)c2sc3nc(-c4cccs4)cc(C(F)(F)F)c3c2N)s1,"inconclusive: 39.8 µM [fluorescent, side channel, partial curve, poor fit]",–
COc1ncnc2c1N=C1CC(C)(C)CC(N)=C1S2,"inconclusive: 50.1 µM [fluorescent, partial curve, poor fit]",–
O=C(O)CSc1c2ccccc2cc2ccccc12,"inconclusive: 70.8 µM [fluorescent, side channel, partial curve, poor fit]",–
Cc1ccc(N2C(=O)CC3(CC4C=CC3C4)C2=O)cc1 (centres undefined),inactive,–
CCOC(=O)C1Nc2ccc(C(=O)O)cc2C2C=CCC12 (centres undefined),inactive,–
O=C(Cn1nnc2ccccc21)OCc1ccccc1,inactive,–
O=C(N/N=C/c1ccc(Br)cc1)c1ccc(Br)o1,inactive,–
COc1ccc(OC)c(/C=C2\S/C(=N/NC(=O)c3ccc4ccccc4c3)NC2=O)c1,"inconclusive: 89.1 µM [fluorescent, side channel, partial curve, poor fit]",–
COc1ccc(/C=N/NC(=O)c2ccc(Br)cc2)cc1CN1CCOCC1,inactive,–
CCc1c(C)sc(NC(=O)c2ccccc2[N+](=O)[O-])c1C(N)=O,"inconclusive: 39.8 µM [falling, full curve]",–

SMILES,Potency,"activity change, negative = inhibition"
COc1ccccc1N=Cc1c(C)c(C#N)c2[nH]c3ccccc3n2c1=O,"inconclusive: 50.1 µM [fluorescent, side channel, partial curve, poor fit]",–
O=C1NC(=S)SC1=Cc1ccc(Cl)cc1,"inconclusive: 89.1 µM [quencher, side channel, partial curve, poor fit]",–
CCOc1ccc(NC(=O)N(C2CCCCC2)C(C)c2ccncc2)cc1 (centres undefined),"inconclusive: 89.1 µM [falling, single point]",–
O=C(N/N=C/c1c(O)n(-c2ccc(Cl)cn2)c(=O)c2ccccc12)c1ccncc1,"inconclusive: 56.2 µM [fluorescent, side channel, partial curve, poor fit]",–
CCCCOc1ccc(CSc2nc(C)[nH]c2[N+](=O)[O-])cc1[N+](=O)[O-],"inconclusive: 89.1 µM [quencher, side channel, partial curve, poor fit]",–
CSc1c(C#N)c(N)nc2sc(C(=O)c3ccc(Cl)c(Cl)c3)c(N)c12,"inconclusive: 44.7 µM [fluorescent, side channel, partial curve, poor fit]",–
COc1cc(OC)cc(C(=O)OC/C(O)=C(\C#N)c2nc3ccccc3[nH]2)c1,inactive,–
O=S(=O)(Nc1ccc(Br)cc1)c1cccc(NS(=O)(=O)c2cccs2)c1,inactive,–
Cc1cc(=O)oc2ccc(OC(=O)CN3C(=O)c4cccc([N+](=O)[O-])c4C3=O)cc12,"inconclusive: 50.1 µM [fluorescent, side channel, partial curve, poor fit]",–
N#CC1=C(N)SC(N)=C(C#N)C1Cc1ccccc1,"inconclusive: 56.2 µM [fluorescent, side channel, partial curve, poor fit]",–
CCN1CC=C2C(C#N)=C(N)C(C#N)(C#N)[C@H](c3cccc(OC)c3OC)[C@H]2C1,"inconclusive: 56.2 µM [fluorescent, partial curve, poor fit]",–
NC(=O)c1cc2ccc(O)cc2oc1=NCc1ccccc1,"inconclusive: 35.5 µM [fluorescent, side channel, partial curve, poor fit]",–
Nc1c(C(=O)c2ccc(Cl)cc2)sc2nsc(SCCN3CCOCC3)c12,"inconclusive: 79.4 µM [fluorescent, side channel, partial curve]",–
C#CCn1cc(C=C2C(=O)c3ccccc3C2=O)c2ccccc21,"inconclusive: 70.8 µM [fluorescent, side channel, partial curve]",–
N#Cc1cccc(NC(=O)CSc2ccc3c4c(cccc24)C(=O)c2ccccc2-3)c1,"inconclusive: 63.1 µM [fluorescent, side channel, partial curve, poor fit]",–
COc1cc2nc(SCC(=O)NCc3ccco3)n(Cc3ccc(Cl)cc3)c(=O)c2cc1OC,inactive,–
O=C(O)C(=O)/C(=C\c1cccc2ccccc12)c1ccc2ccccc2n1,"inconclusive: 79.4 µM [fluorescent, side channel, single point]",–
Cc1ccc(N=Nc2c(C)[nH]n(-c3ccccc3)c2=O)c(C)c1,inactive,–
CCOC(=O)c1c(Nc2ccccc2)sc(/C=C2\C=Nc3ccccc32)c1O,"inconclusive: 70.8 µM [fluorescent, side channel, partial curve, poor fit]",–
